This is one part of the list.

Here are results for 89 sequences from the supplement of paper PMC11417369.

This assay has as its system PfAP2-HC AP2 domain (GST-tagged). Briefly: gcPBM binding intensity (ln(normalized median fluorescence intensity)); higher = stronger DNA binding. A digest of the protocol:
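After 1 h on an Agilent 4 × 180k array of primer-extended double-stranded 36-bp intergenic genomic probes and negative controls, bound GST-tagged P. falciparum DNA-binding domains were detected with Alexa488 anti-GST antibody and scanned at 488 nm. The domains had been expressed in E. coli, and binding took place in 1× PBS with 1% milk, 0.2 mg/ml BSA, 0.5% salmon testes DNA and 0.03% Triton X-100. Binding intensity is the highest Masliner-normalised natural-log median intensity across replicate spots of either probe orientation.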
Regarding “TTCTTTTTAAATTACACACACATATATATCTGTATA [CACACA_site5863]”, the “gcPBM binding intensity (ln)” value came out at 10.1.

With “TAAAGGATTTTCGAAGCATGCCACCTGTGACATACT [TGCATGCA_site130]”, the “gcPBM binding intensity (ln)” value is 9.33.

Take “TACATACATACATACACACACATATATATATATATA [CACACA_site1944]”: the “gcPBM binding intensity (ln)” value stood at 10. The figure for “ATTTTTTCATATTCTACACACGTGAACAAATGAGTC [CACACA_site5635]” is 9.67; for “AACAGACAAAGACACACACACATACATACATACATA [CACACA_site6351]” it is 10.4. The figure for “TATCATATTTTTATATGTACATAACATAAAAAAAAA [XGTACX_site2152]” is 9.3; for “TGATTTGTGCCGATTTGTACACATTTATATATATAT [XGTACX_site2154]” it is 9.91. The result for “AGAAAGAAAATATATACACACAAAAAAAAATATATA [CACACA_site1412]” reads 9.93; that for “TTTTTTTTATGTATCACACATAATTTTTTATTATGA [CACACA_site5534]”, 9.66. As to “ATAATAACAAGGCGCTGTACTGTACCGTTTTTCATA [XGTACX_site6135]”, the “gcPBM binding intensity (ln)” value turned out to be 9.79. The result for “CATCCACAAATATGTACACACATATATAAATATGTA [CACACA_site7407]” reads 9.8; that for “CAATGTTAACATATTACACACATATGTATATATAAT [CACACA_site8878]”, 9.99. The figure for “GACAACTCTTTTCATACACACAAAAAAAAAAAAATA [CACACA_site2361]” is 9.72; for “TCACATATATATTAATGTACATATATTTTTTATGTA [XGTACX_site5125]” it is 9.85; for “GATATATCCTATGTTATTTTTATGGTGTAATTTAGT [XGTACX_negctrl_site112]” it is 9.85.

Turning to “TTTTTTTTCTCACAAAAAATAATTAACAAAAAGGAA [XGTACX_negctrl_site154]”, the “gcPBM binding intensity (ln)” value was determined as 9.27. For the sequence “GGCATGACTATCTGCACACATAAAAATAAGAAATAC [CACACA_site841]”, the “gcPBM binding intensity (ln)” value came out at 9.88. For “GATTTATACAAATATGTACACACTAATTATATATTA [CACACA_site8045]”, the “gcPBM binding intensity (ln)” value worked out at 9.92. The figure for “TAAAAAAAAAAAAAAAGTACAAAAAAAATATTTTTT [XGTACX_site7941]” is 9.3.

Take “ATATGCTATTTACTAGTGCAAAATATTTAAAATATG [GTGCAC_site9517]”: the “gcPBM binding intensity (ln)” value was 9.57.

Regarding “GTTGCACAATGTTACACACACAATATAGATCGTTAA [CACACA_site6717]”, the “gcPBM binding intensity (ln)” value was found to be 10. Take “TTAATATAAGCAAATACACACACACCGATATATATA [CACACA_site9269]”: the “gcPBM binding intensity (ln)” value was determined as 11.1. The figure for “ATAAAAAAAAAAAATACACACATATATTTATTTATA [CACACA_site6903]” is 9.71. Take “TTTATATGGATTTTTTTTTAATATTTCTTTTAATTT [TGCATGCA_negctrl_site361]”: the “gcPBM binding intensity (ln)” value amounted to 9.48. The result for TGATTCTAACTTATGGTGCAACATTATGGACACCGT reads 9.44; that for “TTAATATTGTTATAGCGTACAAATAAACATATTAAA [XGTACX_site8153]”, 9.47; that for “TTACATATTTATGATTGTACACATTTATAAACAATA [XGTACX_site2190]”, 9.34. In the case of “TATTTAAAAATAAAATGTACATATTATTATGCATTA [XGTACX_site1303]”, the “gcPBM binding intensity (ln)” value is 9.54. “ATAATAATAAAGTGAACACACACATATAATATATAT [CACACA_site9378]”: the “gcPBM binding intensity (ln)” value was 10.1. With “TGGTAACAGCATAGAAAATGGACAAACGAAATATAA [GTGCAC_negctrl_site537]”, the “gcPBM binding intensity (ln)” value is 9.72. On to “TAAATAAACAAATTAACACACAGAATTTTTTTTTTC [CACACA_site1674]”, for which the “gcPBM binding intensity (ln)” value came out at 9.76. The result for “AATGTTAAGGAGGGGAGTACATAAAATTCTCTCTCC [XGTACX_site1990]” reads 9.4. The figure for “AAAAGCTATAAAAATCGGTAATTTATAACAGGAATT [CACACA_negctrl_site469]” is 9.67; for “ATTATGTACTATTATACACACGTTTAATTGTAAATT [CACACA_site4278]” it is 9.79. The result for “TAAAAATGTGGACACACACACATATATATATTTAAT [CACACA_site4941]” reads 10.2; that for “TTTCTAATTATTTCCCTTCAAATATATTAATATCGT [CACACA_negctrl_site429]”, 9.55; that for “ATATATATTATTATATGTACATATAAATATATTAAT [XGTACX_site5270]”, 9.53. On to “ATATTGTAAGTAAAATGTAATAAATATAATAAAATA [CACACA_negctrl_site697]”, for which the “gcPBM binding intensity (ln)” value was determined as 9.76.

For “TTAGTATATACATTTGCACACATTATTTTTTAACAT [CACACA_site2618]”, the “gcPBM binding intensity (ln)” value was 10. Consider “AAAAGGAAAATACTAGCACACAATATATAATAAACA [CACACA_site285]”, for which the “gcPBM binding intensity (ln)” value is 9.95. For the sequence “TCCTTGCATTTTAAAACACACAAAAATTAATTGTTA [CACACA_site7152]”, the “gcPBM binding intensity (ln)” value worked out at 9.56. The result for “ATTTTATAAACAAATGAACACACAAACATATATATA [CACACA_site9036]” reads 9.97; that for “TACATACATAAACACACACACACATATATATATATA [CACACA_site8953]”, 10.5; that for “ATCAAAAGAAAACACACACACATACATATATATATA [CACACA_site3795]”, 11.1. The figure for “ATTTGTGTATATTAGAGTACATAAAATTAGAGGAAC [XGTACX_site1654]” is 9.86. The result for “CATTAATGACATGATTGTACATAAGCTTTTTTACAT [XGTACX_site1888]” reads 9.73; that for “ACCCATTCAAATTTCGCACACACATACAAAAAAAAA [CACACA_site3094]”, 10.1.

Regarding “TTCATATATTATTATGCATGTTCATAAATTATCTAA [TGCATGCA_site896]”, the “gcPBM binding intensity (ln)” value came out at 9.57. As for “TTCATATAATTATATACATGCATAAATTCTAAGTAA [TGCATGCA_site622]”, the “gcPBM binding intensity (ln)” value came to 9.49. The result for “TAAAATAATACAAAATGTACAAAATTTACAAAATGT [XGTACX_site3541]” reads 9.81; that for “ATGTAAATTAAACATGGTACACATTATACAAAATTA [XGTACX_site5675]”, 9.77; that for “AATATAGAACAATGTTGTACATATAATAATCTTATA [XGTACX_site4671]”, 9.68.

As to “AACGATATCTGTACTACACACATTATGTCATCCTAT [CACACA_site5374]”, the “gcPBM binding intensity (ln)” value came out at 10.3. The figure for “ATTAACACTGAAAAATGTACATATATAAATATAAGC [XGTACX_site8222]” is 9.79; for “AATATTAAAAACAAAACACACAAAAAAAAATAAACT [CACACA_site6470]” it is 10.2; for “AGCACACCCACAAAAACACACACAAAGGTGTTCTTA [CACACA_site8355]” it is 10.5. The figure for “TCATTATTATTCCTCACACATATATATATATATATT [CACACA_site4375]” is 10.

Turning to “CACTTTTCATATATGACACACAAAAAATTAATAAAA [CACACA_site3639]”, the “gcPBM binding intensity (ln)” value was found to be 9.72. The result for “GCATGTATAATGGTAGTGCATATAATAATATAATAA [GTGCAC_site9548]” reads 9.85; that for “TAATAATAAAAATAAACACACATATAGATGTATATA [CACACA_site7360]”, 9.77. The figure for “ATTTTGTTCGAAAGGTGTACATATACAAAAATTATG [XGTACX_site957]” is 9.67; for “ATTGCTTTTCTTTTTGCACACTTATGCATATATATA [CACACA_site2584]” it is 9.97.

Regarding “ATATCGTATATGAGTGGTACTAATATGTAAAAAAAA [XGTACX_site7830]”, the “gcPBM binding intensity (ln)” value stood at 9.83. The figure for “TATTATCTCTTATGAACACACATTTTTATTTTCAAA [CACACA_site3353]” is 9.74. The figure for ATATAAGTATTTTGAATGCACTTTCTTTTTTTTTTT is 9.56; for “ACTGAAAAAAGAAATACACACATTCTGGATCATATA [CACACA_site3860]” it is 9.86; for “TTATAAAATAATTAATGTACGTTTATGTGTATCGAA [XGTACX_site6117]” it is 9.56. With “AAAGTTATAATACGTACACACCTTATCTTTTTGGCT [CACACA_site6267]”, the “gcPBM binding intensity (ln)” value amounted to 9.81.

On to “TTTATGGGTATGTTTACACACATAAAAAAATATATG [CACACA_site5646]”, for which the “gcPBM binding intensity (ln)” value stood at 9.74.

Take “ATATATATGAAAATATGTACATATATATATATATAA [XGTACX_site7550]”: the “gcPBM binding intensity (ln)” value came to 9.8. The result for “AGCACAAGCACAAGCACACATTTATATATAAATACA [CACACA_site4642]” reads 9.85; that for “ACAAAATATACAAAATGTACAAAATTTACAAAATAT [XGTACX_site6466]”, 9.81. With “AAAAAAAAAAATAAAGAAATCAAAATTGATGAATAA [GTGCAC_negctrl_site692]”, the “gcPBM binding intensity (ln)” value worked out at 9.63. The result for “TATATAAAAAATAAATGTACACATGTAATAATAAAA [XGTACX_site2640]” reads 9.94; that for “TGTGTAAACATATTCACACACATAAATTCGCATATA [CACACA_site6961]”, 9.91; that for “TATAAATATACACCCACACACATATATATATATATA [CACACA_site3745]”, 10. Turning to “TATATATATTTATGCTGTACCAAATAAGAATAGAAA [XGTACX_site7731]”, the “gcPBM binding intensity (ln)” value amounted to 9.6.

Turning to “ATATGAACAAAATAAATCTCTTCAAAAATAATGTTC [GTGCAC_negctrl_site2]”, the “gcPBM binding intensity (ln)” value amounted to 9.55. Turning to “TAAATGATTGCATAATGTACATATAATTTTTTTTTT [XGTACX_site1988]”, the “gcPBM binding intensity (ln)” value was found to be 9.55. The figure for “TACTTACATATAATAACACACAAGAAAAAAATAAAA [CACACA_site1033]” is 9.83. The figure for “ATTTTTGTACACTTCTTTTTTTTTTTTCTTTTATGT [CACACA_negctrl_site1323]” is 10.3; for “TACCCATGCATTTTTGCACACACATATATATATAAA [CACACA_site1429]” it is 9.94; for “AGACAGCGCACAAACACACAAACACCCACCCACATA [CACACA_site451]” it is 11.3. The figure for “ATTTATTATGAACATACACACAAAAAAAAAAAGTAT [CACACA_site2054]” is 10.5; for “TAACTTTGAAAAGATGGTACACAATAATATATATAT [XGTACX_site8667]” it is 9.85; for “ATTGTTATTTATTGTGTGCGCATTAATACATACATA [GTGCAC_site9982]” it is 10.2. As to “TAATGTTGAGAATTTTGTACATATAGATCAATTTAT [XGTACX_site5426]”, the “gcPBM binding intensity (ln)” value stood at 9.45. With “TGACATAAAAAATATACACACTATAATATATATACT [CACACA_site4898]”, the “gcPBM binding intensity (ln)” value was 9.81.

With “TGTATCCATATTTGTTCACACACACCCATATTTATA [CACACA_site9190]”, the “gcPBM binding intensity (ln)” value worked out at 10.4.
